In this data set the test system is ATP. Put plainly: switch fluorescence ratio, 500 uM ATP over buffer (Cy3 cluster intensity, sum of 5 cycles each) (fold (ratio)); higher = stronger signal-on switching upon ATP binding; sequences stand for … in TCGTCGGCAGCGTCAGATGTGTATAAGAGACAGTTTTTTTTTTTTTTTTTTTTTTTTT…TC. The note with it: aptamer strand: ATP DNA aptamer (quencher-CACCTGGGGGAGTATTGCGGAGGAAGG + anchor), 100 nM annealed; ATP concentration: 500 uM; one replicate. In outline:
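The quencher-labelled ATP aptamer, at 100 nM, was annealed to Cy3-labelled switching-strand clusters on a modified Illumina MiSeq flow-cell. The clusters were imaged in selection buffer, then after 15 min with 500 uM ATP at 22 °C, and this buffer/ATP cycle ran five times with NaOH stripping and re-annealing between runs. Per-cluster fluorescence ratios, summed target-cycle over summed buffer-cycle Cy3 intensity, were averaged per switch-domain sequence. Clusters outside 100-1000 RFU were excluded.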

Sequences with one replicate were seen in a single cluster, so their values are uncertain.
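Also: ATP exposure 15 min at 22 °C before imaging.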

For GCCCATGCAC, the switch fluorescence ratio is 1.05.
To AAATTACCTG belongs 1.01.
To TTGCAGAGAT belongs 1.01; to AACTAGCATG, 1.02; to TGAAATTCTG, 1.04.
To CGATAGCATG belongs 1.07; to GTTGCGTAT, 0.948.
On to TGCTGATCAG, for which the switch fluorescence ratio came to 0.991.
To CGTCACTTGA belongs 0.991; to CGTAGGCGCA, 1; to GATTCTGCGG, 1.03.
To CCTTGGGTGC belongs 1.59.
To GAGCTCAATT belongs 0.983; to CTTTTAAATT, 0.994; to ATTTGTCTCC, 1.01.
For the sequence AAAAACCTTT, the switch fluorescence ratio is 1.04.
To AATACGGCGC belongs 1.04.
To CTATTAGGAG belongs 0.964; to ATTAAAATT, 0.992.
Regarding AATATCGCAG, the switch fluorescence ratio turned out to be 1.01.
As to TATAGGGAGA, the switch fluorescence ratio was found to be 1.02.
Consider ATGGAGCACT, for which the switch fluorescence ratio came out at 1.33.
To GGCTGCAAG belongs 1.01.
As for ATCGTGATTT, the switch fluorescence ratio turned out to be 1.09.
To AAAGCGTGA belongs 1; to CGTTTTGTAC, 1.08.
To AATGGTAATG belongs 1.07; to GAAGAATGCA, 0.953.
To GAATATGGCC belongs 0.993.
For the sequence GGGCTTTTCC, the switch fluorescence ratio was 1.06.
As for AATATGACAA, the switch fluorescence ratio amounted to 1.01.
To AGGGGTTC belongs 0.954; to TTGAGGTGT, 1; to GTTCAGTTAA, 1.02.
Turning to AATAGATTTT, the switch fluorescence ratio stood at 0.996.
To AATTGAGGGA belongs 0.94; to TTGGCGGGGG, 0.981.
To TACGTACGGG belongs 1.75.
To TTGTATCCGT belongs 1.02; to ATCTGAACCT, 1.96; to ACTCATTGG, 1.03.
In the case of CATATTGATC, the switch fluorescence ratio amounted to 1.06.
With GTAACAGCGG, the switch fluorescence ratio worked out at 0.981.
In the case of GCATCAACTA, the switch fluorescence ratio came to 1.01.
Consider ACCCGCGGGG, for which the switch fluorescence ratio was found to be 0.972.
For TCCGAGATTT, the switch fluorescence ratio turned out to be 1.03.
To CATATCCTCG belongs 1.05; to TGGTGTACTG, 1.02.
Consider CTTGCCCTCT, for which the switch fluorescence ratio was 0.991.
As to ATAAGGTAAT, the switch fluorescence ratio was determined as 1.
Regarding CAAACAGTGT, the switch fluorescence ratio came out at 0.987.
To CTGGGCTTTC belongs 1.02; to TCTGTAGTCA, 1.17.
To CTCGACCGCA belongs 2.61.
On to CGCGGTGCGT, for which the switch fluorescence ratio was 0.92.
Consider GGACGAATCC, for which the switch fluorescence ratio is 1.02.
As for GCAAATACAT, the switch fluorescence ratio is 1.04.
To CGAAACGTTG belongs 0.989.
To TTCAAACGGT belongs 0.96; to GCCCGAGTTT, 0.992; to TCGCTTATAA, 1.71.
Take ACTAAATCAT: the switch fluorescence ratio stood at 1.04.
To CATCACATAT belongs 1.09; to TAATTGTATA, 0.994.
Take TCAACGAAGC: the switch fluorescence ratio was found to be 1.1.
Regarding TCTACCTCAC, the switch fluorescence ratio worked out at 1.45.
To CTGGGATATT belongs 1.04; to GTAAAAACAA, 0.997.
To CCGGAAGTTT belongs 0.986; to GATACACAT, 1.04; to TAAGTTGGAA, 1.02.
For the sequence CGAGCAGGCA, the switch fluorescence ratio worked out at 0.933.
As for CGTGTTAAGT, the switch fluorescence ratio was 0.985.
To CCGGACGAAA belongs 5; to ACATGGCTCG, 0.978; to TAACGTACCT, 1.31.
Take GCAGTGCCGC: the switch fluorescence ratio was 0.979.
As to ACCGTCGTCG, the switch fluorescence ratio was determined as 1.01.
